Laboratory results taken from patent US7144865B2, “Compositions and methods for treating obesity” (The United States of America as represented by the …, priority 2003, dated 2006).

Assay: Body weight and water intake in S-D rats treated with zinc or zinc plus CHP (FIGS. 4, 5, 9)
Conditions: normal weight 8 month old normal Sprague Dawley rats; FIG. 5

Structure (SMILES): [Zn] [zinc]
- body weight (changes): slightly affected
